# Data as given in the supplement of paper PMC4604168 (melanoma cell lines).
# Some of the results follow. Most values come without repeats; read them as rough.
# Key:
# Test in all cases: cell count relative to DMSO control; melanoma cells; higher = more viable cells
# Conditions in all cases: library dose: low library concentration; 72 h
# COLO792 = tested on: COLO792
# COLO800 = tested on: COLO800
# COLO829 = tested on: COLO829
# G361 = tested on: G361
# IPC-298 = tested on: IPC-298
# IST-MEL1 = tested on: IST-MEL1
# LB2518-MEL = tested on: LB2518-MEL
# LOXIMVI = tested on: LOXIMVI
# MEL-HO = tested on: MEL-HO
# MZ2-MEL = tested on: MZ2-MEL
# MeWo = tested on: MeWo
# RPMI7951 = tested on: RPMI7951
# RVH-421 = tested on: RVH-421
# SkMel28 = tested on: SkMel28
# SkMel30 = tested on: SkMel30
# SkMel5 = tested on: SkMel5
# UACC257 = tested on: UACC257
# UACC62 = tested on: UACC62
# 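Also: cell number obtained by counting DAPI-stained nuclei in high-throughput microscope images with image analysis software, screen run in 1,536-well plates.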
Compound,cell count (COLO792),cell count (COLO800),cell count (COLO829),cell count (G361),cell count (IPC-298),cell count (IST-MEL1),cell count (LB2518-MEL),cell count (LOXIMVI),cell count (MEL-HO),cell count (MZ2-MEL),cell count (MeWo),cell count (RPMI7951),cell count (RVH-421),cell count (SkMel28),cell count (SkMel30),cell count (SkMel5),cell count (UACC257),cell count (UACC62)
"C[C@]12O[C@H](C[C@]1(O)CO)n1c3ccccc3c3c4c(c5c6ccccc6n2c5c31)CNC4=O [Lestaurtinib] + O=C(O)C(=O)Nc1sc2c(c1C(=O)O)CCNC2 [TCS401] (first compound 0.004 µM, partner dose 1.66667 µM)",98.2%,96%,110%,98.7%,93.9%,103%,112%,85.7%,88.5%,101%,100%,118%,106%,109%,115%,122%,91.4%,93%
"C[C@]12O[C@H](C[C@]1(O)CO)n1c3ccccc3c3c4c(c5c6ccccc6n2c5c31)CNC4=O [Lestaurtinib] + N#Cc1c(O)c2c(-c3ccc(-c4ccccc4O)cc3)csc2[nH]c1=O [A769662] (first compound 0.004 µM, partner dose 2 µM)",97.3%,152%,109%,102%,97.1%,101%,104%,127%,103%,101%,90.2%,107%,114%,101%,84.2%,108%,87.7%,86.7%
"C[C@]12O[C@H](C[C@]1(O)CO)n1c3ccccc3c3c4c(c5c6ccccc6n2c5c31)CNC4=O [Lestaurtinib] + O=C1NC(=O)/C(=C/c2ccc(-c3ccc(F)cc3O)o2)S1 [AS252424] (first compound 0.004 µM, partner dose 1 µM)",107%,78.2%,133%,95.9%,98.5%,104%,95.9%,87.8%,109%,106%,84.4%,108%,124%,112%,88.1%,114%,93.8%,95.3%
"C[C@]12O[C@H](C[C@]1(O)CO)n1c3ccccc3c3c4c(c5c6ccccc6n2c5c31)CNC4=O [Lestaurtinib] + COc1ccc(-c2ccc3c(N4CCOCC4)nc(N4C[C@@H](C)O[C@@H](C)C4)nc3n2)cc1CO [KU0063794] (first compound 0.004 µM, partner dose 0.02 µM)",96.6%,125%,84.9%,84.9%,89.9%,108%,88.6%,106%,81%,94.1%,74.7%,93.4%,105%,98%,76.4%,111%,73.2%,101%
"C[C@]12O[C@H](C[C@]1(O)CO)n1c3ccccc3c3c4c(c5c6ccccc6n2c5c31)CNC4=O [Lestaurtinib] + Cc1cc([N+](=O)[O-])ccc1NS(=O)(=O)c1cc(Cl)ccc1Cl [FH535] (first compound 0.004 µM, partner dose 1 µM)",90.8%,77.2%,103%,87.8%,88.1%,91.8%,38.1%,75.6%,95.6%,87.3%,98.3%,102%,75.5%,89.3%,66.3%,89.4%,77.9%,82.9%
"C[C@]12O[C@H](C[C@]1(O)CO)n1c3ccccc3c3c4c(c5c6ccccc6n2c5c31)CNC4=O [Lestaurtinib] + O=C(O)c1ccc(-c2c[nH]c3ncc(-c4ccccc4)cc23)cc1C1CCCC1 [GSK650394] (first compound 0.004 µM, partner dose 0.16 µM)",99.9%,153%,84.4%,90.8%,89.2%,90.6%,89.4%,113%,88.1%,95.4%,82.8%,85.6%,112%,93.4%,93%,101%,88.6%,90.7%
"C[C@]12O[C@H](C[C@]1(O)CO)n1c3ccccc3c3c4c(c5c6ccccc6n2c5c31)CNC4=O [Lestaurtinib] + Cn1cc(/C=C2\C(=O)Nc3cccnc32)c2ccccc21 [GW441756] (first compound 0.004 µM, partner dose 0.4 µM)",99.1%,112%,112%,96.5%,96.5%,90%,102%,106%,95.5%,100%,99.8%,99.4%,104%,93.8%,86.7%,96.3%,90.3%,101%
"Cn1cc(C2=C(c3cn(C4CCN(Cc5ccccn5)CC4)c4ccccc34)C(=O)NC2=O)c2ccccc21 [Enzastaurin] + CC(C)(C)c1cnc(CSc2cnc(NC(=O)C3CCNCC3)s2)o1 [SNS-032] (first compound 0.8 µM, partner dose 0.01 µM)",89.2%,95.1%,106%,94.7%,101%,96.5%,–,87.7%,109%,–,103%,90%,84.2%,94.4%,106%,86.6%,81.6%,87.2%
"C[C@]12O[C@H](C[C@]1(O)CO)n1c3ccccc3c3c4c(c5c6ccccc6n2c5c31)CNC4=O [Lestaurtinib] + OCCn1cc(-c2cnc3nnn(Cc4ccc5ncccc5c4)c3n2)cn1 [PF04217903] (first compound 0.004 µM, partner dose 1 µM)",93%,101%,105%,97.5%,101%,107%,–,88.1%,104%,–,93.1%,127%,97.1%,97.9%,88.2%,105%,106%,85.9%
"C[C@]12O[C@H](C[C@]1(O)CO)n1c3ccccc3c3c4c(c5c6ccccc6n2c5c31)CNC4=O [Lestaurtinib] + NCC(=O)Nc1ccc(-n2nc(C(F)(F)F)cc2-c2ccc3c(ccc4ccccc43)c2)cc1 [OSU03012] (first compound 0.004 µM, partner dose 1 µM)",94.5%,85.3%,97.7%,97.6%,88.8%,98%,110%,101%,108%,101%,43.3%,122%,123%,84.9%,59.8%,89.8%,94.1%,95.9%
"C[C@]12O[C@H](C[C@]1(O)CO)n1c3ccccc3c3c4c(c5c6ccccc6n2c5c31)CNC4=O [Lestaurtinib] + CCCCCCCCCCCC1=C(O)C(=O)C=C(O)C1=O [Embelin] (first compound 0.004 µM, partner dose 1.2 µM)",102%,127%,103%,94.4%,99.9%,101%,86.3%,118%,103%,101%,89.9%,107%,115%,109%,105%,98.9%,91.4%,120%
"Cn1cc(C2=C(c3cn(C4CCN(Cc5ccccn5)CC4)c4ccccc34)C(=O)NC2=O)c2ccccc21 [Enzastaurin] + Cc1cc([N+](=O)[O-])ccc1NS(=O)(=O)c1cc(Cl)ccc1Cl [FH535] (first compound 0.8 µM, partner dose 1 µM)",84.5%,74.8%,119%,86.9%,99.9%,85.8%,–,93.5%,94.1%,–,117%,97.3%,93.5%,93.7%,94.8%,77.3%,69.7%,78%
"C[C@]12O[C@H](C[C@]1(O)CO)n1c3ccccc3c3c4c(c5c6ccccc6n2c5c31)CNC4=O [Lestaurtinib] + CCc1ccc(CCOc2ccc(CC3SC(=O)NC3=O)cc2)nc1 [pioglitazone] (first compound 0.004 µM, partner dose 2 µM)",97.9%,102%,89.9%,92.4%,99%,101%,85.3%,151%,64.7%,99.4%,95.6%,91.6%,106%,91.8%,66.9%,123%,70%,68.1%
"N.N.[Cl][Pt][Cl] [cisplatin] + NCC(=O)Nc1ccc(-n2nc(C(F)(F)F)cc2-c2ccc3c(ccc4ccccc43)c2)cc1 [OSU03012] (first compound 1.6 µM, partner dose 1 µM)",99.5%,80.9%,80.4%,106%,96.8%,102%,–,114%,95.6%,–,95%,96.5%,81.8%,94.2%,132%,91.9%,94.6%,97.3%
"C[C@]12O[C@H](C[C@]1(O)CO)n1c3ccccc3c3c4c(c5c6ccccc6n2c5c31)CNC4=O [Lestaurtinib] + Cc1ccc(NC(=O)c2cccc(N(C)C)c2)cc1NC(=O)c1ccc(O)cc1 [ZM336372] (first compound 0.004 µM, partner dose 2 µM)",87.1%,81.2%,107%,84.9%,86%,90.8%,88.8%,103%,96.5%,83.3%,105%,67.8%,104%,106%,90.5%,93.4%,67.4%,90.4%
"C[C@]12O[C@H](C[C@]1(O)CO)n1c3ccccc3c3c4c(c5c6ccccc6n2c5c31)CNC4=O [Lestaurtinib] + Oc1nc(-c2ccc(C(F)(F)F)cc2)nc2c1CSCC2 [XAV939] (first compound 0.004 µM, partner dose 2 µM)",88.5%,93.7%,103%,97.8%,100%,103%,93.8%,83%,102%,120%,87.4%,87.3%,126%,103%,87.2%,84.4%,88.4%,91%
"C[C@]12O[C@H](C[C@]1(O)CO)n1c3ccccc3c3c4c(c5c6ccccc6n2c5c31)CNC4=O [Lestaurtinib] + O=S(=O)(c1ccccc1)N(CC(F)(F)F)c1ccc(C(O)(C(F)(F)F)C(F)(F)F)cc1 [T0901317] (first compound 0.004 µM, partner dose 1.4 µM)",98.2%,86%,101%,92.3%,90.7%,94.4%,92.6%,71.2%,92.4%,103%,93.1%,106%,93.5%,92.5%,89.1%,95.8%,91.9%,92.4%
"N.N.[Cl][Pt][Cl] [cisplatin] + O=C(Oc1ccc([N+](=O)[O-])cc1)N1CCC(C(O)(c2ccc3c(c2)OCO3)c2ccc3c(c2)OCO3)CC1 [JZL184] (first compound 1.6 µM, partner dose 1 µM)",100%,96.9%,111%,106%,108%,99.5%,–,109%,84.3%,–,110%,106%,98.6%,103%,94.3%,94.5%,107%,101%
